Results are given in words; binding and its absence hold for the method and conditions named. In cells and extracts the contact can be indirect. Some results given as binding are weak or reduced against the parent protein; the word gives no strength. Tags and fused reporters may be left off the sequences shown.
T1: IL-1α precursor fused with a HiBiT-tag at the N-terminus and a His-tag at the C-terminus (HiBiT-IL-1α-His) (human) (UniProt P01583)
T1 sequence: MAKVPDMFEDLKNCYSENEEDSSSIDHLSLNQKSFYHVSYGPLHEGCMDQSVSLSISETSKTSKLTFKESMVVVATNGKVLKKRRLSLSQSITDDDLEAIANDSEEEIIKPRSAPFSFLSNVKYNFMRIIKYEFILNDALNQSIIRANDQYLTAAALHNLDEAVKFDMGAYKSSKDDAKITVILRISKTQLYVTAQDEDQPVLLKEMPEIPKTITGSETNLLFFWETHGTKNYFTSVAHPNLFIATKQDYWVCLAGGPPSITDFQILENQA

Sequences of proteins named here, by UniProt entry; tags and fusion partners are left off.
UniProt Q14974: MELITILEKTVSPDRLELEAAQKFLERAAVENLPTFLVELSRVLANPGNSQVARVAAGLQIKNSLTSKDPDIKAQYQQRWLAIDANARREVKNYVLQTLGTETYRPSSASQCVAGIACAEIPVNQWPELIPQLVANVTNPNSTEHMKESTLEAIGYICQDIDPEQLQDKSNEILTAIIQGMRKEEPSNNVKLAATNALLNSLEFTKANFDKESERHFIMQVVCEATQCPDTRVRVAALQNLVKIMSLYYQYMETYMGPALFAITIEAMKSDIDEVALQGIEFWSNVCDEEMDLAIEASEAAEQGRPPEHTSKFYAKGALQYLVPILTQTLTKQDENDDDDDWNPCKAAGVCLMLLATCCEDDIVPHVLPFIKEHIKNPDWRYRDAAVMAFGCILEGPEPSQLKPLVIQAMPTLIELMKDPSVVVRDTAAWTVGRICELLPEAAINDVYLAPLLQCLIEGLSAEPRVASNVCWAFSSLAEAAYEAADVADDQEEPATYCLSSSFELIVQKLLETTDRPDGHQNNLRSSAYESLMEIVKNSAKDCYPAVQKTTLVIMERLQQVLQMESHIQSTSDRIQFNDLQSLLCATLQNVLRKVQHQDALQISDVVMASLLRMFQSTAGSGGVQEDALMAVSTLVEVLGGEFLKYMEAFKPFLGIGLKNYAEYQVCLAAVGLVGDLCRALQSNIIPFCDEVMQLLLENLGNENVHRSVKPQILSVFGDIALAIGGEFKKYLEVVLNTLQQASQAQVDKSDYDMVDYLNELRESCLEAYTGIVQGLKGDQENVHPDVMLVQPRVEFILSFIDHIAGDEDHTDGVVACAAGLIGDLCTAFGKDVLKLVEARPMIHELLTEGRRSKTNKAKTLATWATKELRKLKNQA
UniProt Q04206: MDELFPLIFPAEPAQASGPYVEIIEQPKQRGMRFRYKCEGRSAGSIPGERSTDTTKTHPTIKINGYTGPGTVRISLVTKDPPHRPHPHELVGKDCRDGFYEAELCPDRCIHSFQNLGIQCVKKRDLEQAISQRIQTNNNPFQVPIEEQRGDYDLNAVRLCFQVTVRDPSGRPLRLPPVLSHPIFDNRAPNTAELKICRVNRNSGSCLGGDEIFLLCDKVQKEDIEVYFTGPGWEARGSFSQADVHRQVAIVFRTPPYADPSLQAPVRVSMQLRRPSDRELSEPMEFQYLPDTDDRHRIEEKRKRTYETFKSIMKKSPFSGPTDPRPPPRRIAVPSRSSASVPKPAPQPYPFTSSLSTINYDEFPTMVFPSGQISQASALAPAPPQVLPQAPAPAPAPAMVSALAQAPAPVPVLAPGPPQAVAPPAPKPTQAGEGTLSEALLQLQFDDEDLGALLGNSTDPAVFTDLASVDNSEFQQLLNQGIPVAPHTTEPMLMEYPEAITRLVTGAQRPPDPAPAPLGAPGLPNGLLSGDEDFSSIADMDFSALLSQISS
UniProt P52294: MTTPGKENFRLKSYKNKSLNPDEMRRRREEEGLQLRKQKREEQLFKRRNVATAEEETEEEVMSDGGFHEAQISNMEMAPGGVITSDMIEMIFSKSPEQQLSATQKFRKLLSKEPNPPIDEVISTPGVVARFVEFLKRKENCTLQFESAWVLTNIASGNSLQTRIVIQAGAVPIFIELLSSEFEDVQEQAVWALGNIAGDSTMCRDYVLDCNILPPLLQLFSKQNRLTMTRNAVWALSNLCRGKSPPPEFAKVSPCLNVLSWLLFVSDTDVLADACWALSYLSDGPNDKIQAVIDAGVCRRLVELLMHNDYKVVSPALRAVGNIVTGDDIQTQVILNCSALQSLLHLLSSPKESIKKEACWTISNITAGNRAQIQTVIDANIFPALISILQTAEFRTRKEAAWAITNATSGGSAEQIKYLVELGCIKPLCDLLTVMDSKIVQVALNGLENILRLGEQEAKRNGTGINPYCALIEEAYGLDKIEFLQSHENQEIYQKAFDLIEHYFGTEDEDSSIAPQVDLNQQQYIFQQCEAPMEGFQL
UniProt O00505: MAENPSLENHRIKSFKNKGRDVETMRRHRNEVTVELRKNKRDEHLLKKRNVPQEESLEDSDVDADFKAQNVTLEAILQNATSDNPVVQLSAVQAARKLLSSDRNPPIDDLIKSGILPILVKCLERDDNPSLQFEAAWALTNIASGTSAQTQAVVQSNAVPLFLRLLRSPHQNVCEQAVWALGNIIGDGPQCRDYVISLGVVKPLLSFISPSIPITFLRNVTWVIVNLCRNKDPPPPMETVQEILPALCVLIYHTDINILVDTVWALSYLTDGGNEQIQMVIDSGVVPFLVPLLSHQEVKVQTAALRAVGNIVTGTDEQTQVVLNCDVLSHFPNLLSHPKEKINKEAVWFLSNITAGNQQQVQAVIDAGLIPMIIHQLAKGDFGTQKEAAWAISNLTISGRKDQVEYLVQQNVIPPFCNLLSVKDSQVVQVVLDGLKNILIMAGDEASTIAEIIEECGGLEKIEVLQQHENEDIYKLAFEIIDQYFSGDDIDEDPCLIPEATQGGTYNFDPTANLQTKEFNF
UniProt O15131: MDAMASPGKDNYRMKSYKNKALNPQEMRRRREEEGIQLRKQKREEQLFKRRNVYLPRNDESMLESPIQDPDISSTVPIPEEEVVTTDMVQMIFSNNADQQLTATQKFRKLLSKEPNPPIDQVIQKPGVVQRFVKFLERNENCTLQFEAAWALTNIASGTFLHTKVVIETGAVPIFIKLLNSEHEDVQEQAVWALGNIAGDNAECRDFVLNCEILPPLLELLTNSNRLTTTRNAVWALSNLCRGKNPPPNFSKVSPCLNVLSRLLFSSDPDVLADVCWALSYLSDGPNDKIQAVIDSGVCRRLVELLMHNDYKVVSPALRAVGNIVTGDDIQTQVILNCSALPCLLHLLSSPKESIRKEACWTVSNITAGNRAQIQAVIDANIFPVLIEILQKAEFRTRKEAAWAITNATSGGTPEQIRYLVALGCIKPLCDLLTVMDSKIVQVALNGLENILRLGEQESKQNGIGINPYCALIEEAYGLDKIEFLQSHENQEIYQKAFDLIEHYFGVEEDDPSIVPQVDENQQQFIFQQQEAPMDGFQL
UniProt O00165: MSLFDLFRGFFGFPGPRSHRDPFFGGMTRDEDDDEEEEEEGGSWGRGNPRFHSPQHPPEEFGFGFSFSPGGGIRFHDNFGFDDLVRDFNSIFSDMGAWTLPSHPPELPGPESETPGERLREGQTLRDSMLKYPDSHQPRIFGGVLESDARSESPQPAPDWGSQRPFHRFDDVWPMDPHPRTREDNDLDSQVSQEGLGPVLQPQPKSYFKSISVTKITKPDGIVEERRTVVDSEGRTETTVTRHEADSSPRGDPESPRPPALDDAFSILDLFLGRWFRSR
UniProt O00629: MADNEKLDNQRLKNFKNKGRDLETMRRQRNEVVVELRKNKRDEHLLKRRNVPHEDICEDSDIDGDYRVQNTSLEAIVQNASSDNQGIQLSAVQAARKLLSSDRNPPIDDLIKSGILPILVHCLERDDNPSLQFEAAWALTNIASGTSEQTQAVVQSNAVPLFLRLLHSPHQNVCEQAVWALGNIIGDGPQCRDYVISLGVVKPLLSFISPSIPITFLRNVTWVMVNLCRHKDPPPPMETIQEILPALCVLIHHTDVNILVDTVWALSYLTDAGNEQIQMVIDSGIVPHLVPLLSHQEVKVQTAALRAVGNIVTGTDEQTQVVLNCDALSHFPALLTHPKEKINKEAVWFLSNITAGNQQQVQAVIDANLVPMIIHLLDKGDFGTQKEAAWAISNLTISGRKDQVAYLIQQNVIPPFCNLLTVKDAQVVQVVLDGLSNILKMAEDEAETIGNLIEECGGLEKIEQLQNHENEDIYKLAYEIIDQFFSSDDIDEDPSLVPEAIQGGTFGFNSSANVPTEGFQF
UniProt P04406: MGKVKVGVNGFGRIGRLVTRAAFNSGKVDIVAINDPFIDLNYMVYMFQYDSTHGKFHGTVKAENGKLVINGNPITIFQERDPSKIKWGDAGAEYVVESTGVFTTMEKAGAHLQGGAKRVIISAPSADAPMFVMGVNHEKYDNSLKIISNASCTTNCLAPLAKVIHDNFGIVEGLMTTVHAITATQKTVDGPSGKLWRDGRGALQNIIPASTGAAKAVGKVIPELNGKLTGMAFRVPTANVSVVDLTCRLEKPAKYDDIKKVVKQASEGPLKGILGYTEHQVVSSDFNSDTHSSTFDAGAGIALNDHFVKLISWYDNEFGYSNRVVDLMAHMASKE


Key:
[1] = target: Importin subunit beta (importin β1) (human (endogenous in HeLa)) (UniProt Q14974); experiment: co-IP; anti-importin β1 antibody coupled to Dynabeads M-270 Epoxy; lysate of HeLa cells expressing His-tag-fused IL-1α, 30 min at 4 °C; input, supernatant and pellet fractions blotted
[2] = target: T1, IL-1α precursor fused with a HiBiT-tag at the N-terminus and a His-tag at the C-terminus (HiBiT-IL-1α-His) (human); experiment: pull-down; cobalt-based IMAC (Dynabeads His-Tag Isolation and Pulldown) of His-tag-fused IL-1α from lysate of transfected HeLa cells; beads 5 min at room temperature; washes in 50 mM Na-phosphate pH 8.0, 300 mM NaCl, 0.01% Tween 20; elution with 300 mM imidazole; flow-through and elution fractions blotted

| Molecule | binding [1] | binding [2] |
| --- | --- | --- |
| p65 (from UniProt Q04206 1-551) | binds | – |
| Importin subunit alpha-5 (from UniProt P52294 1-538) | – | binds |
| Importin subunit alpha-4 (from UniProt O00505 1-521) | – | binds |
| Importin subunit alpha-6 (from UniProt O15131 1-539) | – | binds |
| HCLS1-associated protein X-1 (from UniProt O00165 1-279) | – | binds |
| Importin subunit alpha-7 (from UniProt O60684 1-536) | – | binds |
| Importin subunit alpha-3 (from UniProt O00629 1-521) | – | binds |
| GAPDH (from UniProt P04406 1-335) | no binding | no binding |
| Importin subunit beta (importin β1) (from UniProt Q14974 1-876) | – | no binding |
| IL-1α precursor fused with a HiBiT-tag at the N-terminus and a His-tag at the C-terminus (HiBiT-IL-1α-His) (protein, UniProt P01583 1-271) MAKVPDMFEDLKNCYSENEEDSSSIDHLSLNQKSFYHVSYGPLHEGCMDQSVSLSISETSKTSKLTFKESMVVVATNGKVLKKRRLSLSQSITDDDLEAIANDSEEEIIKPRSAPFSFLSNVKYNFMRIIKYEFILNDALNQSIIRANDQYLTAAALHNLDEAVKFDMGAYKSSKDDAKITVILRISKTQLYVTAQDEDQPVLLKEMPEIPKTITGSETNLLFFWETHGTKNYFTSVAHPNLFIATKQDYWVCLAGGPPSITDFQILENQA | no binding | – |
